Measured values taken from the antibiotic and cytotoxicity screens of Wong et al. (2023).
This is one part of the list.

What was measured:
HSkMC = human skeletal muscle cells; assay: cytotoxicity call (relative viability < 0.9); conditions: 10 µM
HepG2 = assay: cytotoxicity call (relative viability < 0.9); conditions: 10 µM
S. aureus RN4220 = assay: growth inhibition call (relative growth <= 0.2); conditions: 50 µM

SMILES | cytotoxicity call (HSkMC) | cytotoxicity call (HepG2) | growth inhibition call (S. aureus RN4220)
C[C@H]1CN([C@@H](C)CO)C(=O)c2cc(-c3cccnc3)cnc2O[C@@H]1CN(C)Cc1ccc(-c2ccccc2)cc1 | inactive | inactive | inactive
Cc1ccc(S(=O)(=O)N(C)C[C@H]2OCCCC[C@@H](C)Oc3ccc(NC(=O)Nc4cccc5ccccc45)cc3C(=O)N([C@@H](C)CO)C[C@H]2C)cc1 | inactive | inactive | inactive
O=C(N/N=C/[C@H](O)[C@@H](O)[C@H](O)[C@H](O)CO[C@H]1O[C@H](CO)[C@H](O)[C@H](O)[C@H]1O)c1ccccn1 | inactive | inactive | inactive
C[C@@H]1CN([C@@H](C)CO)C(=O)c2cccc(NC(=O)c3ccncc3)c2O[C@H]1CN(C)S(=O)(=O)c1cn(C)cn1 | inactive | active | inactive
CCNC(=O)c1cccc(NS(C)(=O)=O)c1 | inactive | inactive | inactive
COc1cc(/C=C/c2cc(O)cc(O[C@@H]3O[C@H](CO)[C@@H](O)[C@H](O)[C@H]3O)c2)ccc1O[C@@H]1O[C@H](CO)[C@@H](O)[C@H](O)[C@H]1O | inactive | inactive | inactive
CNc1ncnc(Cl)c1N | inactive | inactive | inactive
COc1cccc(S(=O)(=O)N(C)C[C@@H]2OCc3cn(nn3)CCCC(=O)N([C@@H](C)CO)C[C@H]2C)c1 | inactive | inactive | inactive
CCCc1ncc(C[n+]2ccccc2C)c(N)n1.[Cl-] | inactive | inactive | inactive
NC(=O)c1ccc(N)cc1N1CCCC1 | inactive | inactive | inactive
COc1ccccc1CNC(=O)C[C@@H]1C[C@@H]2c3cc(NC(=O)Nc4ccc(C(F)(F)F)cc4)ccc3O[C@@H]2[C@@H](CO)O1 | inactive | inactive | inactive
Cc1noc(C)c1S(=O)(=O)Nc1ccc2c(c1)C(=O)N([C@@H](C)CO)C[C@H](C)[C@@H](CN(C)C(=O)NC(C)C)O2 | inactive | inactive | inactive
COc1ccc(S(=O)(=O)N(C)C[C@@H]2Oc3c(NS(C)(=O)=O)cccc3C(=O)N([C@H](C)CO)C[C@H]2C)cc1 | inactive | inactive | inactive
Cc1ccc(S(=O)(=O)Nc2ccc3c(c2)C(=O)N([C@H](C)CO)C[C@H](C)[C@@H](CN(C)Cc2ccc4c(c2)OCO4)OCCCC[C@H](C)O3)cc1 | inactive | inactive | inactive
NC(=S)CN1CCCC1=O | inactive | inactive | inactive
O=C(C[C@@H]1CC[C@H]2[C@@H](COC[C@@H](O)CN2C(=O)c2cccnc2)O1)NCC1CC1 | inactive | inactive | inactive
C[C@@H]1CCCCO[C@@H](CN(C)Cc2ccccc2)[C@@H](C)CN([C@H](C)CO)C(=O)c2cc(NC(=O)CCCCCC(=O)Nc3ccccc3N)ccc2O1 | inactive | inactive | inactive
COc1ccc(C#Cc2cnc3c(c2)C(=O)N([C@H](C)CO)C[C@H](C)[C@@H](CN(C)C(=O)CC2CC2)O3)cc1 | inactive | inactive | inactive
C[C@H]1CN([C@@H](C)CO)C(=O)c2cccc(NC(=O)C3CCCCC3)c2O[C@H]1CN(C)Cc1ccc(C(F)(F)F)cc1 | inactive | inactive | inactive
C[C@@H]1CCCCO[C@H](CN(C)Cc2ccc(C(=O)O)cc2)[C@H](C)CN([C@H](C)CO)C(=O)c2cc(NC(=O)CCC(F)(F)F)ccc2O1 | inactive | inactive | inactive
C[C@H]1CN([C@@H](C)CO)C(=O)c2cc(NC(=O)C3CC3)ccc2O[C@@H]1CN(C)S(=O)(=O)c1ccccc1 | inactive | inactive | inactive
Cc1noc(C)c1NC(=O)Nc1ccc2c(c1)C(=O)N([C@@H](C)CO)C[C@@H](C)[C@H](CN(C)Cc1ccc(-c3ccccc3)cc1)O2 | inactive | inactive | inactive
C[C@@H]1CN([C@H](C)CO)C(=O)Cc2cc(NS(C)(=O)=O)ccc2O[C@H]1CN(C)Cc1ccc2c(c1)OCO2 | inactive | inactive | inactive
C[C@@H]1CCCCO[C@@H](CN(C)Cc2ccc(Cl)c(Cl)c2)[C@@H](C)CN([C@@H](C)CO)C(=O)c2cc(NC(=O)C3CCCCC3)ccc2O1 | inactive | inactive | inactive
CC(C)NC(=O)N(C)C[C@H]1Oc2c(NS(=O)(=O)c3ccccc3)cccc2C(=O)N([C@H](C)CO)C[C@H]1C | inactive | active | inactive
C[C@@H]1CN([C@@H](C)CO)C(=O)Cc2cc(NC(=O)Cn3cnnn3)ccc2O[C@@H]1CN(C)Cc1ccc(C(=O)O)cc1 | inactive | inactive | inactive
C[C@H](CO)N1C[C@H](C)[C@@H](CN(C)Cc2ccc(C(=O)O)cc2)Oc2c(NC(=O)Nc3ccc(C(F)(F)F)cc3)cccc2C1=O | inactive | inactive | inactive

SMILES | cytotoxicity call (HSkMC) | cytotoxicity call (HepG2) | growth inhibition call (S. aureus RN4220)
C[C@H]1CCCCO[C@@H](CN(C)C(=O)CCC(F)(F)F)[C@@H](C)CN([C@@H](C)CO)C(=O)c2cc(NS(=O)(=O)c3ccc(F)cc3)ccc2O1 | inactive | inactive | inactive
O=C(C[C@H]1CC[C@@H]2[C@H](COC[C@H](O)CN2S(=O)(=O)c2ccc(Cl)cc2)O1)N[C@H]1CCN(Cc2ccccc2)C1 | inactive | inactive | inactive
O=C(/C=C/c1ccc(O)c(O)c1)O[C@H]1[C@H](O)C[C@](O)(C(=O)O)C[C@H]1O | inactive | inactive | inactive
C[C@@H]1CN([C@H](C)CO)C(=O)Cc2cc(NC(=O)CCC(F)(F)F)ccc2O[C@H]1CN(C)S(=O)(=O)c1cn(C)cn1 | inactive | inactive | inactive
C[C@@H]1CCCCO[C@H](CN(C)C(=O)C2CCCCC2)[C@H](C)CN([C@@H](C)CO)C(=O)c2cc(NC(=O)c3ccccc3)ccc2O1 | inactive | inactive | inactive
COc1ccc(S(=O)(=O)N(C)C[C@@H]2Oc3ccc(N(C)C)cc3C(=O)N([C@@H](C)CO)C[C@@H]2C)cc1 | inactive | inactive | inactive
CC(=O)O[C@H]1C[C@@H](OC(C)=O)C(C)(C)[C@@H]2CC(=O)[C@]3(C)[C@H](CC[C@@]4(C)[C@H](C(=O)O)OC(=O)[C@H]5O[C@]543)[C@@]12C | inactive | inactive | inactive
C[C@H](C(=O)N(C)C[C@H]1OCc2ccccc2-c2c(n(C)c3ccccc23)C(=O)N([C@H](C)CO)C[C@H]1C)c1ccccc1 | inactive | inactive | inactive
Cc1noc(C)c1NC(=O)Nc1ccc2c(c1)C(=O)N([C@@H](C)CO)C[C@@H](C)[C@H](CN(C)Cc1ccc(C(=O)O)cc1)OCCCC[C@@H](C)O2 | inactive | inactive | inactive
C[C@H]1CCCCO[C@@H](CN(C)S(=O)(=O)c2ccccc2)[C@@H](C)CN([C@@H](C)CO)C(=O)c2cc(NS(C)(=O)=O)ccc2O1 | inactive | inactive | inactive
CNC(=C[N+](=O)[O-])NCCSCc1csc(CN(C)C)n1 | inactive | inactive | inactive
c1cncc(-c2nc3ccc4ccccc4c3c3c2CCCC3)c1 | inactive | inactive | inactive
CC(C)NC(=O)Nc1cccc2c1O[C@H](CN(C)S(=O)(=O)c1ccccc1)[C@H](C)CN([C@H](C)CO)C2=O | inactive | inactive | inactive
C[C@H](CO)N1C[C@H](C)[C@@H](CN(C)Cc2ccc(Oc3ccccc3)cc2)Oc2c(NC(=O)Nc3cccc4ccccc34)cccc2C1=O | active | active | inactive
COc1ccc(NC(=O)Nc2ccc3c(c2)C(=O)N([C@@H](C)CO)C[C@@H](C)[C@@H](CN(C)S(=O)(=O)c2cccs2)OCCCC[C@H](C)O3)cc1 | inactive | inactive | inactive
C[C@H](CO)N1C[C@H](C)[C@@H](CN(C)S(=O)(=O)c2cccs2)Oc2ccc(NC(=O)Nc3cccc4ccccc34)cc2CC1=O | inactive | inactive | inactive
CCOC(=O)C1=CC2(CC)CCCN3CCc4c(n1c1ccccc41)C32 (configuration not stated) | inactive | inactive | inactive
COc1ccc(S(=O)(=O)Nc2ccc3c(c2)C(=O)N([C@H](C)CO)C[C@@H](C)[C@@H](CN(C)C(=O)NC2CCCCC2)OCCCC[C@H](C)O3)cc1 | inactive | inactive | inactive
Nc1c(C(=O)c2ccccc2)no[n+]1[O-] | inactive | inactive | inactive
Cc1ccccc1-c1ccc2c(c1)O[C@H](CN(C)C(=O)Nc1ccc(C(F)(F)F)cc1)[C@@H](C)CN([C@@H](C)CO)S2(=O)=O | inactive | inactive | inactive
COc1ccc(CN(C)C[C@@H]2OCCCC[C@@H](C)Oc3ccc(NS(=O)(=O)c4ccc(Cl)cc4)cc3C(=O)N([C@@H](C)CO)C[C@@H]2C)cc1 | inactive | inactive | inactive
Cc1ccc(S[C@]2(C(=O)O)CC(=O)N(C3Cc4ccccc4C3)[C@@H]2c2ccc(CO)cc2I)cc1 | inactive | inactive | inactive
C[C@@H]1CN([C@H](C)CO)C(=O)c2cccc(NC(=O)Nc3ccc(C(F)(F)F)cc3)c2O[C@H]1CN(C)S(C)(=O)=O | inactive | inactive | inactive
C[C@H]1CN([C@@H](C)CO)C(=O)c2cccc(NC(=O)c3cnccn3)c2O[C@@H]1CN(C)S(=O)(=O)c1ccc(F)cc1 | inactive | inactive | inactive
Cc1noc(C)c1S(=O)(=O)Nc1ccc2c(c1)CC(=O)N([C@@H](C)CO)C[C@H](C)[C@H](CN(C)S(=O)(=O)c1cn(C)cn1)O2 | inactive | inactive | inactive
C[C@@H]1CN([C@@H](C)CO)C(=O)c2cc(NS(=O)(=O)c3cn(C)cn3)ccc2O[C@@H]1CN(C)CC1CC1 | inactive | inactive | inactive
COCC#Cc1ccc2c(c1)O[C@@H](CN(C)Cc1ccc(F)cc1)[C@H](C)CN([C@@H](C)CO)S2(=O)=O | inactive | inactive | inactive
